Test results from patent US7425576B2, “Compounds as inhibitors of hepatitis C virus NS3 serine protease” (Schering Corporation, priority 2004, dated 2008).

What follows are compounds tested against Recombinant heterodimeric HCV NS3/NS4A protease (strain 1a) (Hepatitis C virus genotype 1a, UniProt P27958) (assay: Spectrophotometric assay for HCV protease inhibitory activity (chromogenic ester substrates)). Conditions: Table 3, Ki* range class.
Format: biochemical

Structure (SMILES)	Ki
COC[C@@H](NC(=O)N[C@H](C(=O)N1C[C@H]2[C@@H]([C@H]1C(=O)NC(CC1CCC1)C(=O)C(N)=O)C2(C)C)C1Cc2ccccc2C1)C(C)C (stereo partly drawn) [Example 1652]	< 75 nM
CC(=O)OC(c1ccccc1)[C@@H](NC(=O)N[C@H](C(=O)N1C[C@H]2[C@@H]([C@H]1C(=O)NC(CC1CC1)C(=O)C(N)=O)C2(C)C)C(C)(C)C)C(C)C (stereo partly drawn) [Example 1653]	75 to 250 nM
COC[C@@H](NC(=O)N[C@H](C(=O)N1C[C@H]2[C@@H]([C@H]1C(=O)NC(CC1CC1)C(=O)C(N)=O)C2(C)C)C1(C)CCCCC1)C(C)(C)C (stereo partly drawn) [Example 1654]	< 75 nM
COC[C@@H](NC(=O)N[C@H](C(=O)N1C[C@H]2[C@@H]([C@H]1C(=O)NC(CC1CCC1)C(=O)C(N)=O)C2(C)C)C1(C)CCCCC1)C(C)(C)C (stereo partly drawn) [Example 1655]	< 75 nM
COC[C@@H](NC(=O)N[C@H](C(=O)N1C[C@H]2[C@@H]([C@H]1C(=O)NC(CC1CC1)C(=O)C(N)=O)C2(C)C)C1(C)CCCCC1)C(C)C (stereo partly drawn) [Example 1656]	< 75 nM
COC[C@@H](NC(=O)N[C@H](C(=O)N1C[C@H]2[C@@H]([C@H]1C(=O)NC(CC1CCC1)C(=O)C(N)=O)C2(C)C)C1(C)CCCCC1)C(C)C (stereo partly drawn) [Example 1657]	< 75 nM
CC(C)[C@H](NC(=O)N[C@H](C(=O)N1C[C@H]2[C@@H]([C@H]1C(=O)NC(CC1CC1)C(=O)C(N)=O)C2(C)C)C(C)(C)C)C(O)c1ccccc1 (stereo partly drawn) [Example 1658]	75 to 250 nM
COC[C@@H](NC(=O)N[C@H](C(=O)N1C[C@H]2[C@@H]([C@H]1C(=O)NC(CC1CCC1)C(=O)C(N)=O)C2(C)C)C1(C)CCCC1)C(C)(C)C (stereo partly drawn) [Example 1659]	< 75 nM
COC[C@@H](NC(=O)N[C@H](C(=O)N1C[C@H]2[C@@H]([C@H]1C(=O)NC(CC1CC1)C(=O)C(N)=O)C2(C)C)C1(C)CCCC1)C(C)(C)C (stereo partly drawn) [Example 1660]	< 75 nM
C=CCNC(=O)C(=O)C(CCC(F)(F)F)NC(=O)[C@@H]1[C@@H]2[C@H](CN1C(=O)[C@@H](NC(=O)N[C@H](COC)C(C)(C)C)C1(C)CCCC1)C2(C)C (stereo partly drawn) [Example 1661]	75 to 250 nM
C=CCNC(=O)C(=O)C(CC1CC1)NC(=O)[C@@H]1[C@@H]2[C@H](CN1C(=O)[C@@H](NC(=O)N[C@H](COC)C(C)(C)C)C1(C)CCCC1)C2(C)C (stereo partly drawn) [Example 1662]	75 to 250 nM
C=CCNC(=O)C(=O)C(CCC)NC(=O)[C@@H]1[C@@H]2[C@H](CN1C(=O)[C@@H](NC(=O)N[C@H](COC)C(C)(C)C)C1Cc3ccccc3C1)C2(C)C (stereo partly drawn) [Example 1663]	75 to 250 nM
C=CCNC(=O)C(=O)C(CC1CC1)NC(=O)[C@@H]1[C@@H]2[C@H](CN1C(=O)[C@@H](NC(=O)N[C@H](COC)C(C)(C)C)C1Cc3ccccc3C1)C2(C)C (stereo partly drawn) [Example 1664]	75 to 250 nM
C=CCNC(=O)C(=O)C(CCC(F)(F)F)NC(=O)[C@@H]1[C@@H]2[C@H](CN1C(=O)[C@@H](NC(=O)N[C@H](COC)C(C)(C)C)C1Cc3ccccc3C1)C2(C)C (stereo partly drawn) [Example 1665]	75 to 250 nM
CCCC(NC(=O)[C@@H]1[C@@H]2[C@H](CN1C(=O)[C@@H](NC(=O)N[C@H](COC)C(C)(C)C)C1Cc3ccccc3C1)C2(C)C)C(=O)C(N)=O (stereo partly drawn) [Example 1666]	< 75 nM
COC[C@@H](NC(=O)N[C@H](C(=O)N1C[C@H]2[C@@H]([C@H]1C(=O)NC(CCC(F)(F)F)C(=O)C(N)=O)C2(C)C)C1Cc2ccccc2C1)C(C)(C)C (stereo partly drawn) [Example 1667]	< 75 nM
C=CCNC(=O)C(=O)C(CCC)NC(=O)[C@@H]1[C@@H]2[C@H](CN1C(=O)[C@@H](NC(=O)NC(C(C)C)[C@H](OC)c1ccccc1)C(C)(C)C)C2(C)C (stereo partly drawn) [Example 1668]	75 to 250 nM
CO[C@H](c1ccccc1)C(NC(=O)N[C@H](C(=O)N1C[C@H]2[C@@H]([C@H]1C(=O)NC(CC1CC1)C(=O)C(N)=O)C2(C)C)C(C)(C)C)C(C)C (stereo partly drawn) [Example 1669]	< 75 nM
COC[C@@H](NC(=O)N[C@H](C(=O)N1C[C@H]2[C@@H]([C@H]1C(=O)NC(CC1CC1)C(=O)C(N)=O)C2(C)C)C1CCCCC1)C(C)(C)C (stereo partly drawn) [Example 1670]	< 75 nM

Structure (SMILES)	Ki
C=CCNC(=O)C(=O)C(CCC)NC(=O)[C@@H]1[C@@H]2[C@H](CN1C(=O)[C@@H](NC(=O)N[C@H](COC)C(C)(C)C)C1CCCCC1)C2(C)C (stereo partly drawn) [Example 1671]	75 to 250 nM
COC[C@@H](NC(=O)N[C@H](C(=O)N1C[C@H]2[C@@H]([C@H]1C(=O)NC(CC1CCC1)C(=O)C(N)=O)C2(C)C)C1CCCCC1)C(C)(C)C (stereo partly drawn) [Example 1672]	< 75 nM
CCC[C@@](C)(COC)NC(=O)N[C@H](C(=O)N1C[C@H]2[C@@H]([C@H]1C(=O)NC(CC1CCC1)C(=O)C(N)=O)C2(C)C)C1(C)CCCCC1 (stereo partly drawn) [Example 1673]	75 to 250 nM
CCC[C@@](C)(COC)NC(=O)N[C@H](C(=O)N1C[C@H]2[C@@H]([C@H]1C(=O)NC(CC1CC1)C(=O)C(N)=O)C2(C)C)C1(C)CCCCC1 (stereo partly drawn) [Example 1674]	75 to 250 nM
C=CCNC(=O)C(=O)C(CCCC)NC(=O)[C@@H]1[C@@H]2[C@H](CN1C(=O)[C@@H](NC(=O)N[C@H](COC(C)(C)C)C(C)(C)C)C1(C)CCCCC1)C2(C)C (stereo partly drawn) [Example 1675]	> 250 nM
C#CCCC(NC(=O)[C@@H]1[C@@H]2[C@H](CN1C(=O)[C@@H](NC(=O)N[C@H](COC(C)(C)C)C(C)(C)C)C1(C)CCCCC1)C2(C)C)C(=O)C(=O)NCC=C (stereo partly drawn) [Example 1676]	75 to 250 nM
CC(C)(C)OC[C@@H](NC(=O)N[C@H](C(=O)N1C[C@H]2[C@@H]([C@H]1C(=O)NC(CC1CC1)C(=O)C(N)=O)C2(C)C)C1(C)CCCCC1)C(C)(C)C (stereo partly drawn) [Example 1677]	< 75 nM
CC(C)(C)OC[C@@H](NC(=O)N[C@H](C(=O)N1C[C@H]2[C@@H]([C@H]1C(=O)NC(CC1CCC1)C(=O)C(N)=O)C2(C)C)C1(C)CCCCC1)C(C)(C)C (stereo partly drawn) [Example 1678]	75 to 250 nM
CCCCC(NC(=O)[C@@H]1[C@@H]2[C@H](CN1C(=O)[C@@H](NC(=O)N[C@H](COC(C)(C)C)C(C)(C)C)C1(C)CCCCC1)C2(C)C)C(=O)C(N)=O (stereo partly drawn) [Example 1679]	75 to 250 nM
C#CCCC(NC(=O)[C@@H]1[C@@H]2[C@H](CN1C(=O)[C@@H](NC(=O)NC1(COC(C)(C)C)CCCCC1)C1(C)CCCCC1)C2(C)C)C(=O)C(=O)NCC=C (stereo partly drawn) [Example 1680]	< 75 nM
C=CCNC(=O)C(=O)C(CCCC)NC(=O)[C@@H]1[C@@H]2[C@H](CN1C(=O)[C@@H](NC(=O)NC1(COC(C)(C)C)CCCCC1)C1(C)CCCCC1)C2(C)C (stereo partly drawn) [Example 1681]	> 250 nM
CC(C)(C)OCC1(NC(=O)N[C@H](C(=O)N2C[C@H]3[C@@H]([C@H]2C(=O)NC(CC2CCC2)C(=O)C(N)=O)C3(C)C)C2(C)CCCCC2)CCCCC1 (stereo partly drawn) [Example 1682]	75 to 250 nM
CC(C)(C)OCC1(NC(=O)N[C@H](C(=O)N2C[C@H]3[C@@H]([C@H]2C(=O)NC(CC2CC2)C(=O)C(N)=O)C3(C)C)C2(C)CCCCC2)CCCCC1 (stereo partly drawn) [Example 1683]	< 75 nM
CCCCC(NC(=O)[C@@H]1[C@@H]2[C@H](CN1C(=O)[C@@H](NC(=O)NC1(COC(C)(C)C)CCCCC1)C1(C)CCCCC1)C2(C)C)C(=O)C(N)=O (stereo partly drawn) [Example 1684]	75 to 250 nM
C#CCCC(NC(=O)[C@@H]1[C@@H]2[C@H](CN1C(=O)[C@@H](NC(=O)N[C@@](C)(COC)CC(C)C)C1(C)CCCCC1)C2(C)C)C(=O)C(=O)NCC=C (stereo partly drawn) [Example 1685]	75 to 250 nM
C=CCNC(=O)C(=O)C(CCCC)NC(=O)[C@@H]1[C@@H]2[C@H](CN1C(=O)[C@@H](NC(=O)N[C@@](C)(COC)CC(C)C)C1(C)CCCCC1)C2(C)C (stereo partly drawn) [Example 1686]	> 250 nM
COC[C@@](C)(CC(C)C)NC(=O)N[C@H](C(=O)N1C[C@H]2[C@@H]([C@H]1C(=O)NC(CC1CC1)C(=O)C(N)=O)C2(C)C)C1(C)CCCCC1 (stereo partly drawn) [Example 1687]	< 75 nM
COC[C@@](C)(CC(C)C)NC(=O)N[C@H](C(=O)N1C[C@H]2[C@@H]([C@H]1C(=O)NC(CC1CCC1)C(=O)C(N)=O)C2(C)C)C1(C)CCCCC1 (stereo partly drawn) [Example 1688]	< 75 nM

Same assay, conditions: Table 6, numeric Ki*

Structure (SMILES)	Ki
COC[C@@H](NC(=O)N[C@H](C(=O)N1C[C@H]2[C@@H]([C@H]1C(=O)NC(CC1CC1)C(=O)C(N)=O)C2(C)C)C1(C)CCCCC1)C(C)(C)C (stereo partly drawn) [Example 1654]	12 nM
COC[C@@H](NC(=O)N[C@H](C(=O)N1C[C@H]2[C@@H]([C@H]1C(=O)NC(CC1CCC1)C(=O)C(N)=O)C2(C)C)C1(C)CCCCC1)C(C)(C)C (stereo partly drawn) [Example 1655]	24 nM
